The text below walks through data of the GPR68 mutational scans of Howard et al. (2025).

B1: GPR68, Q15743 (parent)
chain: MGNITADNSSMSCTIDHTIHQTLAPVVYVTVLVVGFPANCLSLYFGYLQIKARNELGVYLCNLTVADLFYICSLPFWLQYVLQHDNWSHGDLSCQVCGILLYENIYISVGFLCCISVDRYLAVAHPFRFHQFRTLKAAVGVSVVIWAKELLTSIYFLMHEEVIEDENQHRVCFEHYPIQAWQRAINYYRFLVGFLFPICLLLASYQGILRAVRRSHGTQKSRKDQIQRLVLSTVVIFLACFLPYHVLLLVRSVWEASCDFAKGVFNAYHFSLLLTSFNCVADPVLYCFVSETTHRDLARLRGACLAFLTCSRTGRAREAYPLGAPEASGKSGAQGEEPELLTKLHPAFQTPNSPGSGGFPTGRLA

The variants in series [1] derive from B1. In words: cAMP reporter score (Enrich2 score, wild type = 0); higher = more signal; HEK293T, FACS bins.
In series [2] the parent is B1. Briefly: surface expression score (Enrich2 score, wild type = 0); higher = more signal; HEK293T, FACS bins.

The least precise scores are not listed. Not listed are two conditions whose scores span a narrow range. Read del as a deletion of the residues named and ins as an insertion between two positions. For some of these results: How much ogerin was present is not stated here.

MGNITADNSSMSCTIDHTIHQTLAPVVYVTVLVVGFPANCLSLYFGYLQIKAANELGVYLCNLTVADLFYICSLPFWLQYVLQHDNWSHGDLSCQVCGILLYENIYISVGFLCCISVDRYLAVAHPFRFHQFRTLKAAVGVSVVIWAKELLTSIYFLMHEEVIEDENQHRVCFEHYPIQAWQRAINYYRFLVGFLFPICLLLASYQGILRAVRRSHGTQKSRKDQIQRLVLSTVVIFLACFLPYHVLLLVRSVWEASCDFAKGVFNAYHFSLLLTSFNCVADPVLYCFVSETTHRDLARLRGACLAFLTCSRTGRAREAYPLGAPEASGKSGAQGEEPELLTKLHPAFQTPNSPGSGGFPTGRLA [R53A]: the cAMP reporter score was -0.513 in series [1] (pH 5.5); -0.892 in series [1] (pH 6); -1.32 in series [1] (pH 6, modulator: ogerin); -1.5 in series [1] (pH 6.5, modulator: ogerin). Besides, the surface expression score in series [2] was -2.04.

For the variant A52_R53insGS, the cAMP reporter score is -0.522 in series [1] (pH 5.5); -1.32 in series [1] (pH 6); -1.27 in series [1] (pH 6, modulator: ogerin); -0.509 in series [1] (pH 6.5, modulator: ogerin). Besides, the surface expression score in series [2] is -2.47.

On to MGNITADNSSMSCTIDHTIHQTLAPVVYVTVLVVGFPANCLSLYFGYLQIKYRNELGVYLCNLTVADLFYICSLPFWLQYVLQHDNWSHGDLSCQVCGILLYENIYISVGFLCCISVDRYLAVAHPFRFHQFRTLKAAVGVSVVIWAKELLTSIYFLMHEEVIEDENQHRVCFEHYPIQAWQRAINYYRFLVGFLFPICLLLASYQGILRAVRRSHGTQKSRKDQIQRLVLSTVVIFLACFLPYHVLLLVRSVWEASCDFAKGVFNAYHFSLLLTSFNCVADPVLYCFVSETTHRDLARLRGACLAFLTCSRTGRAREAYPLGAPEASGKSGAQGEEPELLTKLHPAFQTPNSPGSGGFPTGRLA [A52Y], for which the cAMP reporter score in series [1] (pH 5.5) was 0.718; in series [1] (pH 6), -1.16; in series [1] (pH 6, modulator: ogerin) it was -0.156; in series [1] (pH 6.5, modulator: ogerin) it was -0.212. Moreover, the surface expression score in series [2] is -1.68.

On to MGNITADNSSMSCTIDHTIHQTLAPVVYVTVLVVGFPANCLSLYFGYLQIKWRNELGVYLCNLTVADLFYICSLPFWLQYVLQHDNWSHGDLSCQVCGILLYENIYISVGFLCCISVDRYLAVAHPFRFHQFRTLKAAVGVSVVIWAKELLTSIYFLMHEEVIEDENQHRVCFEHYPIQAWQRAINYYRFLVGFLFPICLLLASYQGILRAVRRSHGTQKSRKDQIQRLVLSTVVIFLACFLPYHVLLLVRSVWEASCDFAKGVFNAYHFSLLLTSFNCVADPVLYCFVSETTHRDLARLRGACLAFLTCSRTGRAREAYPLGAPEASGKSGAQGEEPELLTKLHPAFQTPNSPGSGGFPTGRLA [A52W], for which the cAMP reporter score is -1.37 in series [1] (pH 5.5); -0.592 in series [1] (pH 6); -0.904 in series [1] (pH 6, modulator: ogerin); -0.845 in series [1] (pH 6.5, modulator: ogerin). For the same variant, in series [2], the surface expression score is -1.84.

As to MGNITADNSSMSCTIDHTIHQTLAPVVYVTVLVVGFPANCLSLYFGYLQIKVRNELGVYLCNLTVADLFYICSLPFWLQYVLQHDNWSHGDLSCQVCGILLYENIYISVGFLCCISVDRYLAVAHPFRFHQFRTLKAAVGVSVVIWAKELLTSIYFLMHEEVIEDENQHRVCFEHYPIQAWQRAINYYRFLVGFLFPICLLLASYQGILRAVRRSHGTQKSRKDQIQRLVLSTVVIFLACFLPYHVLLLVRSVWEASCDFAKGVFNAYHFSLLLTSFNCVADPVLYCFVSETTHRDLARLRGACLAFLTCSRTGRAREAYPLGAPEASGKSGAQGEEPELLTKLHPAFQTPNSPGSGGFPTGRLA [A52V], the cAMP reporter score in series [1] (pH 5.5) was -0.576; in series [1] (pH 6) it was -1.31; in series [1] (pH 6, modulator: ogerin), -0.115; in series [1] (pH 6.5, modulator: ogerin), -0.023. In addition, the surface expression score in series [2] was -1.6.
